Results on 93 compounds are retold here after PubChem BioAssay AID360 (National Center for Advancing Translational Sciences (NCATS), 2006).

Molecules are shown by their SMILES. Among all 48,000 compounds or so, about 550 (1.1%) were called active. Inconclusive results (about 4%) are left out. No stated cut-off is given here; in the data, active means potency below about 15 µM; inconclusive means mostly about 16 µM to 33 µM; inactive means weaker than that. This is one part of the list. Some results are limits rather than exact numbers.
Potency means the concentration at half of the fitted maximal effect.

In this experiment the target is Lysosomal acid glucosylceramidase (Homo sapiens) (UniProt P04062). The experiment in a line: Glucocerebrosidase.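 Further: the screen sought inhibitors.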 The following applies: purified enzyme, resorufin glucoside fluorescence (screen aimed at inhibitors), 20 min. The method, boiled down: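 Compounds titrated against 0.2 nM normal enzyme, 30 uM resorufin beta-D-glucopyranoside substrate, citrate/phosphate buffer with taurocholate and tween-20, pH 5.9. Reaction ran 20 min at room temperature; fluorescence (Ex 548/Em 600) gave AC50.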
Chain of UniProt P04062 (P04062 whole entry, looked up): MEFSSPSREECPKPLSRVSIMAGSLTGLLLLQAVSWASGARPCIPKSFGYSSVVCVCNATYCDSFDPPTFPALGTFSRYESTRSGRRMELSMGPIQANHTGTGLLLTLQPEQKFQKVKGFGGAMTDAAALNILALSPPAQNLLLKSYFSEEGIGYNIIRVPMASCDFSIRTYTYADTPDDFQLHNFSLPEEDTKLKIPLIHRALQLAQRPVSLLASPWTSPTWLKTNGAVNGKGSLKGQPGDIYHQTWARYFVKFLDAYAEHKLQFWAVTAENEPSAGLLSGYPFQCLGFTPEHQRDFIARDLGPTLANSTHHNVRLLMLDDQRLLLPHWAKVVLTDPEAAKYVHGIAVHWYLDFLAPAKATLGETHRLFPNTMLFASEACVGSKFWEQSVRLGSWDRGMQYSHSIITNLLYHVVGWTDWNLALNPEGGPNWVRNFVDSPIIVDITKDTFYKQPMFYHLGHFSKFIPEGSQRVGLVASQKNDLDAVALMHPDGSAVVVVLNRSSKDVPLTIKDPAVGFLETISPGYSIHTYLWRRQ
In the case of `Cc1noc(C)c1S(=O)(=O)N1CCC(C(=O)N(C)Cc2ccccc2)CC1`, the Potency is inactive: > 76.9 µM.
In the case of `CCN1CCCC1CNC(=O)C(NC(=O)C1CCC(C)CC1)C(C)C` (stereo not drawn), the Potency was inactive: > 76.9 µM.
On to `COCCOC(=O)C1=C(C)Nc2nc(C)nn2C1c1ccc(F)cc1` (stereo not drawn), for which the Potency is inactive: > 76.9 µM.
On to `CCCCN1C(=O)CN(CCc2ccccc2)C(=O)C1c1ccc(OC)cc1` (stereo not drawn), for which the Potency is inactive: > 76.9 µM.
The figure for `CCc1[nH]nc2c1C1(CCOC1C)C(C#N)=C(N)O2` (stereo not drawn) is inactive: > 76.9 µM; for `COc1ccc(CCNc2oc(COc3ccc(F)cc3)nc2C#N)cc1` it is “inactive”.
Take `O=C(CN1C2=NCCN2c2ccccc21)c1ccc2c(c1)OCO2`: the Potency is inactive: > 76.9 µM.
For the compound `Cc1ccc(C(=O)OCC(=O)Nc2sc3c(c2C#N)CCCCC3)cc1NC(=O)c1ccco1`, the Potency is inactive: > 76.9 µM.
Consider `Cc1ccc(CC2SC(=O)NC2=O)cc1Cl` (stereo not drawn), for which the Potency is inactive: > 76.9 µM.
As for `CCOc1cccc(NC(=O)C2CC(=O)N(C)C(=Nc3cccc(F)c3)S2)c1` (stereo not drawn), the Potency is inactive: > 76.9 µM.
For the compound `O=C(O)CCc1ccc(-c2ccccc2)o1`, the Potency is inactive: > 76.9 µM.
The figure for `COc1ccc(NC(=O)CSc2nnc(-c3ccccn3)n2N)c(OC)c1` is inactive: > 76.9 µM; for `CC1(C)Cc2ccccc2C(/C(=N/O)C(N)=O)=N1` it is inactive: > 76.9 µM; for `O=C(NCc1cccc(C(F)(F)F)c1)C1CCN(c2ncccn2)CC1` it is inactive: > 76.9 µM.
With `CCc1c(C)nc2ncnn2c1N1CCCC(C(=O)NCCc2ccccc2)C1` (stereo not drawn), the Potency was inactive: > 76.9 µM.
For `CCSc1nc2c(c(=O)[nH]c(=O)n2C)n1C/C=C(/C)Cl`, the Potency is inactive: > 76.9 µM.
Take `Cc1nc(NCc2ccc3c(c2)OCO3)c2nnn(Cc3ccccc3)c2n1`: the Potency was inactive: > 76.9 µM.
For `c1ccc(N2CC[N+]3(CCCC3)CC2)nc1`, the Potency is inactive: > 76.9 µM.
The figure for `O=C(OCc1cc2ccccc2[nH]c1=O)c1ccccc1` is inactive: > 76.9 µM; for `O=C(NC12CC3CC(CC(C3)C1)C2)C1=COCCO1` it is inactive: > 76.9 µM; for `Cc1ccc(Nc2nc(CSc3nnnn3C)cs2)cc1` it is inactive: > 76.9 µM.
Take `COc1ccc(-c2csc(Cc3nnc(N4CCOCC4)n3-c3ccccc3)n2)cc1`: the Potency was inactive: > 76.9 µM.
In the case of `Cn1c(=O)c(C(=O)CSc2nncs2)c(N)n(Cc2ccccc2)c1=O`, the Potency was inactive: > 76.9 µM.
Take `C=CCN1CC(O)=C(c2ccccc2)C1=N`: the Potency was inactive: > 76.9 µM.
Turning to `N#Cc1cnc(Nc2nc3ccccc3o2)nc1-c1ccccc1`, the Potency is inactive: > 76.9 µM.
With `O=C(NCc1ccco1)c1ccc2c(=O)n(CCC3=CCCCC3)c(=O)[nH]c2c1`, the Potency is inactive: > 76.9 µM.
As to `CC1(C)Cc2c(sc3c2c(=N)n(Cc2ccco2)c(=O)n3CC(=O)Nc2ccccc2)CO1`, the Potency is inactive: > 76.9 µM.
Regarding `CC(=O)NC1C(=O)N=C(SCC(=O)NC2CCCCC2)NC1=O` (stereo not drawn), the Potency is inactive: > 76.9 µM.
For `Cc1nc2ccc(S(=O)(=O)NCC(=O)N(C)Cc3ccco3)cc2s1`, the Potency was inactive: > 76.9 µM.
For the compound `CCCCNC(=O)c1ccc(NC(=O)C2CCCO2)cc1` (stereo not drawn), the Potency is inactive: > 76.9 µM.
As to `CN(C(=O)C1CCCO1)c1nnc(-c2ccccn2)s1` (stereo not drawn), the Potency is inactive: > 76.9 µM.
Consider `COc1ccccc1-n1cnnc1SC1CCOC1=O` (stereo not drawn), for which the Potency is inactive: > 76.9 µM.
In the case of `O=c1oc2ccccc2n1CCCCCn1c(=O)oc2ccccc21`, the Potency was inactive: > 76.9 µM.
Take `Cn1c(C(=O)N(Cc2ccccc2)Cc2ccccn2)cc2sccc21`: the Potency result is “inactive”.
For `Cc1cccc(-n2c(SCC(=O)NCc3ccco3)nc3ccccc3c2=O)c1`, the Potency is inactive: > 76.9 µM.
In the case of `CC(C)(C)C(=O)Oc1cc(N)n(S(=O)(=O)c2ccccc2)n1` it was inactive: > 76.9 µM; in that of `COC(=O)CSc1ncc(C#N)c(N)n1`, inactive: > 76.9 µM.
As for `CCCn1c(NC(=O)C2COc3ccccc3O2)nc2ccccc21` (stereo not drawn), the Potency was inactive: > 76.9 µM.
The figure for `CC(C)n1c(NCc2cccs2)nc2ccccc21` is inactive: > 76.9 µM.
The figure for `Cc1c(OCc2nn[nH]n2)ccc2c3c(c(=O)oc12)CCCC3` is inactive: > 76.9 µM.
Consider `O=C(CCSc1nc(-c2ccco2)cc(C(F)(F)F)n1)NCCc1ccccc1`, for which the Potency is inactive: > 76.9 µM.
In the case of `CCc1nc2oc3ccccc3c(=O)c2c(=O)n1Cc1ccccc1`, the Potency is inactive: > 76.9 µM.
In the case of `CCn1c(SCC(=O)Nc2cc(C)on2)nnc1-c1cccnc1` it was inactive: > 76.9 µM; in that of `Clc1ccc(C2CC(c3ccco3)n3ncnc3N2)cc1Cl` (stereo not drawn), inactive: > 76.9 µM.
For `CCC(c1nnnn1Cc1ccc2c(c1)OCO2)N1CCN(c2ccc(OC)cc2)CC1` (stereo not drawn), the Potency was inactive: > 76.9 µM.
Regarding `CC(=O)Nc1ccc(S(=O)(=O)N2CCSC2c2ccc(C)cc2)cc1` (stereo not drawn), the Potency was inactive: > 15.4 µM.
The figure for `COC(=O)c1[nH]nc2c1C(=O)N(C1CCCCC1)C2=O` is inactive: > 76.9 µM; for `Cc1cc(C)n(C(=O)CNc2cccc(Cl)c2C)n1` it is inactive: > 76.9 µM.
In the case of `CN(c1ccc(C(=O)N2CCN(c3ccc(F)cc3)CC2)cc1)S(C)(=O)=O` it was inactive: > 76.9 µM; in that of `Cc1cc(Nc2nc3ccccc3[nH]c2=O)n(-c2ccccc2)n1`, inactive: > 76.9 µM.
As to `COc1ccc(C2C(C(C)=O)=C(O)C(=O)N2c2cccnc2)c(OC)c1` (stereo not drawn), the Potency is inactive: > 76.9 µM.
In the case of `CCc1c(C)nc2ncnn2c1N1CCCC(C(=O)NCCc2ccc(OC)cc2)C1` (stereo not drawn) it was inactive: > 76.9 µM; in that of `CN(CC(O)COCc1cccs1)C1CCCCC1` (stereo not drawn), inactive: > 76.9 µM; in that of `Cc1c(Br)cc(C(=O)NCc2ccco2)c(C)c1C`, inactive: > 76.9 µM.
In the case of `Cc1cc(NC(=O)c2ccc(COc3ccc(Cl)c(C)c3)o2)no1` it was inactive: > 76.9 µM; in that of `CC1(c2ccc(Cl)cc2)NC(=O)N(CC(=O)N2CCCC2)C1=O` (stereo not drawn), inactive: > 76.9 µM; in that of `N#Cc1nc(-c2ccc(OCc3ccccc3)cc2)oc1NCCCN1CCOCC1`, “inactive”.
For `CC(C)N(CCNC(=O)C1CCC(=O)N1Cc1ccc(F)cc1)Cc1ccccc1` (stereo not drawn), the Potency was inactive: > 76.9 µM.
Regarding `O=C(CNC(=O)c1ccco1)NCC(=O)OCc1ccccc1Br`, the Potency is inactive: > 76.9 µM.
On to `CC(C)(C)n1ncc2c(=O)n(CC(=O)c3ccccc3)cnc21`, for which the Potency was inactive: > 76.9 µM.
Regarding `COc1ccc(Cl)cc1NC(=O)C1CC(=O)N(c2ccc(F)cc2)C1` (stereo not drawn), the Potency is inactive: > 76.9 µM.
The figure for `O=C(O)C1CCCN1S(=O)(=O)c1ccc2[nH]c(=O)c(=O)[nH]c2c1` (stereo not drawn) is inactive: > 76.9 µM; for `Cc1ccc(Cl)cc1N1CCN(S(=O)(=O)c2ccc3c(c2)oc(=O)n3C)CC1` it is inactive: > 76.9 µM; for `O=C(CSc1nnc(-c2ccccn2)n1Cc1ccccc1)NC1CCCC1` it is inactive: > 76.9 µM.
The figure for `Cc1cc2oc(=O)cc(CN3CCC(C)CC3)c2cc1Cl` is inactive: > 76.9 µM; for `Cc1ccc(C2CC(=O)Nc3sc(C(N)=O)c(N)c32)cc1` (stereo not drawn) it is inactive: > 76.9 µM.
Turning to `O=C(NC1CCCCC1)N(CCN1CCCC1)Cc1cc2cc3c(cc2[nH]c1=O)OCCO3`, the Potency entry is “inactive”.
The figure for `CS(=O)(=O)N(CC(=O)NCc1ccncc1)Cc1ccc(Cl)cc1` is inactive: > 76.9 µM; for `CCCCc1ccc(S(=O)(=O)Nc2cc(C)on2)cc1` it is inactive: > 76.9 µM.
The figure for `CC(C)CCNc1nc2c(c(=O)[nH]c(=O)n2C)n1CC(O)COC(C)C` (stereo not drawn) is inactive: > 76.9 µM; for `COC(=O)c1cc2c(cc1Cl)SC(=NCCCN1CCOCC1)NS2(=O)=O` it is active: 8.27 µM.
Take `CCN(CC(=O)NCc1ccc(F)cc1)Cc1nc2ccccc2c(=O)[nH]1`: the Potency was inactive: > 76.9 µM.
As to `COc1ccc(N2CCN(Cc3nc(N)nc(Nc4ccc(C)c(Cl)c4)n3)CC2)cc1`, the Potency is active: 4.02 µM.
In the case of `O=C(Nc1ccc2c(c1)OCO2)c1cccs1`, the Potency is inactive: > 76.9 µM.
Consider `CCCNC(=O)c1c[nH]c2ccc(S(=O)(=O)N(C)c3ccc(OCC)cc3)cc2c1=O`, for which the Potency was inactive: > 76.9 µM.
Turning to `CCOc1ccc(-c2cc(CCCC(=O)Nc3cc(OC)ccc3OC)no2)cc1`, the Potency was inactive: > 76.9 µM.
With `O=C(O)c1cccnc1Oc1ccccc1`, the Potency was inactive: > 76.9 µM.
For `OCCN1CCN(C(c2cccs2)c2ccc3cccnc3c2O)CC1` (stereo not drawn), the Potency result was “inactive”.
With `O=S(=O)(NCC1OCCc2ccccc21)c1ccc(S(=O)(=O)N2CCOCC2)cc1` (stereo not drawn), the Potency is inactive: > 76.9 µM.
On to `O=C1OC2CC3CC1CC(O)(C3)C2` (stereo not drawn), for which the Potency was inactive: > 76.9 µM.
Regarding `O=C(O)c1cccc(C(=O)Nc2cccc(NC(=O)C3CCCO3)c2)c1` (stereo not drawn), the Potency is inactive: > 76.9 µM.
As for `CCOC(=O)C1CCCN(Cc2ccc3c(c2)OCO3)C1` (stereo not drawn), the Potency was inactive: > 76.9 µM.
On to `O=C(CCN1C(=O)C2C3C=CC(C3)C2C1=O)Nc1ccccn1` (stereo not drawn), for which the Potency was inactive: > 76.9 µM.
Regarding `Nn1c(SCC(=O)Nc2ccc(F)cc2)nnc1C1CCCCC1`, the Potency is inactive: > 76.9 µM.
In the case of `Cc1cc(C)n(C(=O)CNC(=O)c2ccco2)n1` it was inactive: > 76.9 µM; in that of `CCOc1ccc(C2C3=C(CCCC3=O)Nc3nc(C(F)(F)F)nn32)cc1OC` (stereo not drawn), inactive: > 76.9 µM; in that of `CC1CC(=O)c2cnc(NCC3CCCO3)nc2C1` (stereo not drawn), inactive: > 76.9 µM.
Take `Cc1cc(-c2ccccc2)nc2cc(C(=O)NCCCn3ccnc3)nn12`: the Potency was inactive: > 76.9 µM.
Take `C=CCOc1ccc(C2c3c(oc4ccccc4c3=O)C(=O)N2CCCN2CCOCC2)cc1` (stereo not drawn): the Potency entry was “inactive”.
With `O=C1CC(=O)CC(c2ccco2)C1`, the Potency was inactive: > 76.9 µM.
As to `Cc1nc(N)sc1-c1nnc(SCC(=O)Nc2nccs2)n1C`, the Potency is inactive: > 76.9 µM.
In the case of `CCOC(=O)CNC(=O)CSc1nc2cccnc2n1C` it was inactive: > 76.9 µM.
Turning to `Cc1ccc(NC(=O)CCSc2nnnn2-c2ccc3c(c2)OCO3)cc1C`, the Potency was inactive: > 76.9 µM.
